Reference: PubChem BioAssay AID686970 (National Center for Advancing Translational Sciences (NCATS), 2013)
Out of some 360,000 compounds screened, about 6,000 (1.7%) were called active. Inconclusive results, whose numbers are uncertain, are shown with a selection of clear calls. The call rests on the fitted dose curve; in most records, active means well fitted cell-killing curve with a large enough effect; inconclusive means small, poorly fitted or top-dose-only effect, or effect the other way; inactive means flat fitted curve, though single readings scatter. Potencies of inconclusive entries are left out as doubtful fits.

Test: qHTS for induction of synthetic lethality in tumor cells producing 2HG: qHTS for the HT-1080-NT fibrosarcoma cell line;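 further: NT is the 2HG producing partner of a matched IDH1 knockdown line; nearly all actives have a fitted effect of over 55% in size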;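 on activity, negative = less viability: 0% = DMSO-treated cells and -100% = media-only wells without cells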
Details: HT-1080-NT fibrosarcoma viability, CellTiter-Glo ATP luminescence, 48 h; activity, negative = less viability: at 46.1 µM (top of the series) unless noted
How it was run: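 Viability by CellTiter-Glo luminescence after 48 h compound exposure at 37C of HT-1080-NT cells (750/well, RPMI, 5% FBS). % activity scaled between DMSO wells and medium-only wells, then curve-fitted and categorized by curve class.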
Potency means the concentration at half of the fitted maximal effect; tags describe the fitted curve by direction and shape.

Compound | Potency | activity, negative = less viability
Cn1c(SCC(=O)NNC(=O)c2ccccc2O)nnc1-c1ccccc1 | inconclusive [cytotoxic, full curve, poor fit] | –
COc1ccc(C(=O)C(CN2CCCC2)c2ccccc2)cc1 (configuration not stated) | active: 11.2 µM | –
COCCN(Cc1ccccc1)C(=O)c1cccc(S(=O)(=O)N(C)c2c(C)n(C)n(-c3ccccc3)c2=O)c1 | inactive | –
CCc1cc2c3c([nH]c2cc1S(=O)(=O)N1CCC2(CC1)OCCO2)CCCC3=O | inactive | –
Cc1ccc(-c2csc(/C(C#N)=C/Nc3ccccc3SC(F)(F)F)n2)cc1 | inactive | –
CCCN1CCN(CCCNC(=O)Cn2nc(C)n3c(cc4cc(F)ccc43)c2=O)CC1 | inactive | –
Cc1cc(C)c2nc(N(CCN(C)C)C(=O)c3ccc(S(=O)(=O)N(C)CC4CCCO4)cc3)sc2c1 (configuration not stated) | inconclusive [cytotoxic, partial curve] | –
COC(=O)CN(c1cc(Cl)ccc1OC)S(=O)(=O)c1ccc(C)cc1 | active: 18.4 µM | –
O=NN(CC(=O)NNc1ccccc1)CC(=O)NNc1ccccc1 | inconclusive [cytotoxic, partial curve] | –
COc1ccc(CNCc2cc3c(C(C)(C)C)nn(-c4ccccc4)c3[nH]c2=O)cc1 | inconclusive [cytotoxic, single point] | –
COc1cc(NC(=O)C2(C)CCCN2C)cc(OC)c1OC (configuration not stated) | – | inconclusive: 18.9%
Cc1nnc2c3ccccc3ccn12 | inactive | –
Cc1ccc(S(=O)(=O)Nc2ccc3c4c(cccc24)CC3)c(C)c1 | active: 20.6 µM | –
CC1=C(C)/C(=N\OS(=O)(=O)c2ccccc2)C=CC1=O | active: 7.08 µM | –
Cn1c(CNc2ccccc2O)nc2ccccc21 | inconclusive [cytotoxic, partial curve, poor fit] | –
CCOC(=O)c1c(C)c(C(=O)N2CCc3ccccc3C2)c(C)n1CC | inconclusive [cytotoxic, single point] | –
Cc1cccc(C)c1-n1c(C)cc(/C=N/NC(N)=S)c1C | inconclusive [cytotoxic, single point] | –
O=C(CCl)N1CCN(C(=O)C2COc3ccccc3O2)CC1 (configuration not stated) | inconclusive [cytotoxic, partial curve] | –
COc1ccc(N2CCN(C(=O)c3ccc(Cn4nc(C)c([N+](=O)[O-])c4C)o3)CC2)cc1 | inconclusive [cytotoxic, partial curve] | –
COc1ccc(C(=O)/C=C/c2ccc(O)cc2)c(O)c1CC=C(C)C | inconclusive [cytotoxic, single point] | –
O=C(CCl)Nc1ccccc1C(=O)Nc1ccc2c(c1)OCO2 | inconclusive [cytotoxic, single point] | –
CNc1ccc(-c2cccc(C#N)c2)cn1 | – | inconclusive: 31.9%
COc1ccc(/C=N/NC(=O)c2cc(OC)c(OC)c(OC)c2)cc1CN1CCc2cc(OC)c(OC)cc2C1C (configuration not stated) | inconclusive [cytotoxic, single point] | –
CN(C(=O)COc1ccccc1C(=O)NCCOc1ccccc1)c1ccccc1 | active: 20.6 µM | –

Compound | Potency | activity, negative = less viability
COc1ccc(NC(=O)CCC(=O)c2ccc(-c3ccccc3)cc2)cc1 | inconclusive [rising, full curve] | –
CCOc1ccccc1N1CC(C(=O)NCCOc2ccccc2OC)CC1=O (configuration not stated) | inactive | –
CSc1nc(N(C)C)nc(N(C)C#N)n1 | inactive | –
Cc1ccc(Cl)cc1N1CCN(C(=O)Cc2csc(Nc3nc(=S)[nH]c4ccccc34)n2)CC1 | inactive | –
Clc1ccc(-c2nnc(-c3ccc4ccccc4c3)o2)cc1 | inactive | –
C/C(=N\NC(=O)COc1ccc(C)cc1Br)c1cc([N+](=O)[O-])cs1 | inconclusive [cytotoxic, single point] | –
Cc1cc(-c2ccco2)n(CC(=O)O)n1 | inactive | –
CCSc1nnc(NC(=O)c2nc(-c3ccccc3)n(-c3ccccc3)n2)s1 | inconclusive [rising, partial curve] | –
C/C(=N\Nc1cc(N2CCCCC2)nc(C)n1)c1ccc(Br)cc1 | inconclusive [cytotoxic, single point] | –
OCCCCNCc1ccc(OCc2ccc(Cl)cc2)cc1 | inconclusive [cytotoxic, single point] | –
O=C1C=CC(c2c[nH]c3ccccc23)CC1 (configuration not stated) | inconclusive [cytotoxic, single point] | –
CN(C)c1ccc(NC(=O)Nc2nc(C(N)C3CCCCC3)cs2)cc1 (configuration not stated) | inconclusive [cytotoxic, single point] | –
CCn1cc(C(=O)OCC(=O)c2cc(C)n(-c3cccc(C(F)(F)F)c3)c2C)c(=O)c2ccc(C)nc21 | inactive | –
CCCOC(=S)N/C(=N\S(=O)(=O)c1ccccc1)c1ccccc1 | inconclusive [cytotoxic, single point] | –
COc1ccc(-c2cnc(SCC(=O)Nc3ccc4c(c3)OCO4)n2Cc2ccco2)cc1 | inconclusive [cytotoxic, single point] | –
CCOC(=O)C1CCCN(C(=O)CCCn2nnnc2CN2CCC(C)CC2)C1 (configuration not stated) | inactive | –
COc1cccc(-c2sc3ccc(OC)cc3c2C#CC2(O)CCCCC2)c1 | inconclusive [cytotoxic, single point] | –
CN(CC(=O)Nc1cccc(F)c1)C(=O)c1cn(-c2ccccc2)nc1-c1ccc(Cl)cc1 | active: 20.6 µM | –
Cc1ccc2c(c1)N(C(=O)CCC(=O)NCC(C)c1ccccc1)CC(C)O2 (configuration not stated) | inactive | –
O=C(/C=C\c1ccco1)Oc1cccc2cccnc12 | inconclusive [cytotoxic, partial curve] | –
CCSc1nnc(NC(=O)C(C)(C(F)(F)F)C(F)(F)F)s1 | inconclusive [cytotoxic, single point] | –
COc1ccc(-c2nc3ccccn3c2NC2CCCCC2)cc1SC1CCCCC1 | inconclusive [cytotoxic, single point] | –
FC(F)Sc1ccc(NC(=S)NCC2CCCCC2)cc1 | inconclusive [cytotoxic, single point] | –
